Data: PubChem BioAssay AID1508623 (National Center for Advancing Translational Sciences (NCATS), 2021)
Hit rate of the full screen: of about 48,000 compounds, about 450 (0.94%) were called active. Not shown: some 19% with an inconclusive outcome. Calls come from the whole dose curve; as a rule, active = well fitted inhibition curve with a large enough effect; inconclusive = small, poorly fitted or top-dose-only effect; inactive = no such curve, though single readings can be large or run the other way. The list shows a part of the results.

assay: Primary qHTS for Identification of Small Molecule Inhibitors of Huntingtin Promoter Activity; settings: HEK293 HTT promoter firefly luciferase reporter (activity 0% = vehicle and -100% = no light), 24 h; series mostly up to 57.5 µM; activity change, negative = inhibition: at the top concentration; note: nearly all actives have a fitted effect of over 50% in size
In short: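 HEK293 luciferase promoter-reporter cells (2,500/well) plated 24 h, then compounds added at up to 57.5 uM final for 24 h at 37 °C. Firefly luminescence by Dual-Glo, normalized to vehicle (0%) and zero RLU (-100%).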

Activity change, negative = inhibition, inactive:
CCOCCCNC(=O)CCc1nnc2ccc(N3CCN(c4cccc(OC)c4)CC3)nn12 1.8%
CCOC(=O)c1ccccc1NC(=O)CCc1c(C)nc2ncnn2c1C -1.94%
Cc1ccc(NCc2nnc3n2CCCCC3)cc1Cl 10.5%
Cc1ccc2c(=O)cc(C(=O)Nc3nnc(C)s3)oc2c1 -0.676% [at 11.5 µM]
CCn1nc(-c2ccccc2)c(-c2ccccc2)c(C(=O)OCCOC)c1=O -13%
Cc1oc(-c2ccccc2)nc1CNC(=O)Nc1ccccc1 0%
CCOc1ccc(S(=O)(=O)N2CCN(c3ccccc3)CC2)cc1C(N)=O -0.896%
CC(C)N(C(=O)Cn1cc(S(=O)(=O)Cc2ccc(C(F)(F)F)cc2)c2ccccc21)C(C)C -14.7%
Cc1ccc(Nc2c(-c3ccccc3O)nc3ccc(Br)cn23)cc1 15.2%
COc1ccc2c(Sc3ccc(Cl)cc3)c(C(=O)NCCCN3CCCCC3)[nH]c2c1 -29%
CCOc1ccc(-n2c(=O)c3c(C)c(C(=O)N(C)C)sc3n(CC(=O)Nc3c(C)cc(C)cc3C)c2=O)cc1 -2.96%
Cc1cccc(NC(=O)CSc2nc3c([nH]c4ccccc43)c(=O)n2C)c1 -20.7%
Cc1ccc(CN(C(=O)COc2ccc(C)c(C)c2)C2CCS(=O)(=O)C2)o1 (stereo not given) -15%
COc1ccc(S(=O)(=O)Nc2cc(-c3cn4ccccc4n3)ccc2C)cc1 -29.9%
COc1cccc(C2C(C(=O)Nc3cccnc3)=C(C)Nc3nc(SCc4ccccc4)nn32)c1 (stereo not given) -2.37%
Cc1nc2ccc(S(=O)(=O)CCC(=O)Nc3ccccc3C)cc2s1 -4.13%
O=C(CC1NCCNC1=O)Nc1cccc(F)c1 (stereo not given) -13.9%
Cc1ccc2ncc3c(-c4ccccc4)nn(CC(=O)NC4CCCCC4)c3c2c1 -13%
COc1ccccc1N1CCN(CCCNC(=O)Cn2ncc3c([nH]c4ccccc43)c2=O)CC1 5.5%
COc1ccc(NC(=O)CSC2=Nc3ccccc3C3=NC(CCC(=O)NCc4ccco4)C(=O)N23)cc1 (stereo not given) -16.6%
COc1ccccc1CNC(=O)C(=O)NCC(c1ccc2c(c1)OCO2)N1CCOCC1 (stereo not given) -17.2%
CCc1ccc(CNc2nc3nc(C)c(Cc4ccccc4)c(=O)n3[nH]2)cc1 -17.4%
CCc1ccc(-c2nc(SCC(=O)NCCOC)c(-c3ccc(C)cc3)[nH]2)cc1 -21.4%
CC(=O)c1cccc(NC(=O)C2=CC(c3ccco3)=NS(=O)(=O)N2C)c1 -6.75%
COc1ccc(Nc2nnc(-c3ccc(C)c(S(N)(=O)=O)c3)c3ccccc23)cc1 -24.2%
CCc1cccc(C)c1NC(=O)c1cnn(-c2ccc(F)cc2)c1-n1cccc1 -37.5%
Cc1cccc(S(=O)(=O)c2cn(Cc3ccccc3)c3cc(N4CCCC(C)C4)c(F)cc3c2=O)c1 (stereo not given) -23.6%
Clc1ccc(CSc2nc(NCCc3ccccc3)c3ccccc3n2)cc1 2.53%
Cc1cc(NC(=O)C2CCCN(S(=O)(=O)c3cccc4nonc34)C2)ccc1Br (stereo not given) -6.88%
COc1ccc(OC)c(CNCc2c(C(=O)O)n(Cc3ccccc3)c3cc(OC)ccc23)c1 -11.1%
CCC(=O)N1CCc2cc(S(=O)(=O)NC(CC(C)C)C(=O)Nc3ccc(CC)cc3)ccc21 (stereo not given) -17.5%
O=C(CN1N=C(c2ccc(Cl)cc2)CCC1=O)NCc1ccc(F)cc1 -5.44%
O=C1Nc2ccccc2Oc2cc(Oc3ccc(Cl)cc3)ccc21 -32.2%
Cc1ccc(-c2cc(C(F)(F)F)n3nc(C(=O)Nc4ccc(C#N)cc4)cc3n2)cc1 -14.4% [at 11.5 µM]
CCOc1ccccc1CNC(=O)CCCN1C(=O)CCn2nc(-c3cccn3C)cc21 0%
Cc1ccc(CNC(=O)C2CCN(S(=O)(=O)c3ccc4c(c3)oc(=O)n4C)CC2)cc1 -17.1%
CCc1ccc(-n2nc(C)c3c(C)cc(=O)n(CC(=O)Nc4ccc(OC)c(OC)c4)c32)cc1 -16%
COc1ccc(Cl)cc1N(C)C(=O)Cn1cnc2sc(C)c(S(=O)(=O)N3CCN(c4ncccn4)CC3)c2c1=O -13%
CCC(CC)C(=O)Nc1ccccc1C(=O)OCc1cc(=O)n2nc(C3CCCCC3)sc2n1 -28%
CCOc1ccc(CNC(=O)Cn2ncc3c(=O)oc4ccc(C)cc4c32)cc1 5.4%
Cc1ccc(C)c(CN2C(=O)c3ccccc3S(=O)(=O)c3ccc(C(=O)N4CCOCC4)cc32)c1 -21.5%
COc1ccc(C(=O)N2CCCCC2CCN2CCCCC2)cc1 (stereo not given) -8.15%
COc1ccc(Cl)cc1NC(=O)[C@H]1O[C@@H]2OC(C)(C)O[C@@H]2[C@H]2OC(C)(C)O[C@H]21 -4.15%
O=S(=O)(c1cccs1)N1CCN(c2ccc(Cl)cc2)CC1 -52%
CCN1CCN(C(=O)c2ccc3c(c2)N(Cc2cc(C)ccc2C)C(=O)c2ccccc2S3=O)CC1 (stereo not given) -18.8%
COc1ccc(NC(=O)Cn2cc(C(=O)C3CC3)c3ccccc32)cc1 -7.43%
NS(=O)(=O)c1ccc(CCNc2nc3c(-c4cccc(F)c4)nnn3c3ccc(Cl)cc23)cc1 3.49%
CCOc1ccccc1NC(=O)Cn1nnc2sc3c(c2c1=O)CCC(C(C)(C)C)C3 (stereo not given) 5.34%
Cc1ccc(CSc2nc3ccc(NC(=O)COc4ccccc4F)cc3s2)cc1 -14.8%
CCN(CC)CCCNC(=O)Cn1c(-c2cccs2)cc2cc(Cl)ccc21 -26.7%
CCOC(=O)c1c(C)oc2c(Cl)cc(NS(=O)(=O)c3ccc(Cl)c(C)c3)cc12 -19.8%
CCOC(=O)c1c(C)[nH]c(C)c1S(=O)(=O)N(C)CC(=O)N1CCN(c2ccccc2OC)CC1 -23%
CCOC(=O)N1CCN(C(=O)CN(c2ccc(C)cc2C)S(=O)(=O)c2ccccc2)CC1 -10.4%
O=C(CN1C(=O)C2(SCC(=O)N2c2cccc(Cl)c2)c2ccccc21)NC1CCCCC1 (stereo not given) -13.8%
O=C(CNS(=O)(=O)c1ccc(Br)s1)N1CCN(c2ccccc2F)CC1 -16.1%
Cc1nn(CC(=O)N2CCN(c3ccccc3)CC2)c(=O)c2cccn12 2.11%
Cc1ccc(-c2nc3c(cnn3-c3ccccc3)c(=O)n2-c2ccc(Cl)cc2)cc1 -24.7%
O=C(COCc1cc(-c2ccco2)on1)Nc1ccc(OC(F)(F)F)cc1 6.94%
COc1cccc(OC)c1C(=O)Nc1ccc2c(c1)CCCN2S(=O)(=O)c1ccc(C)cc1 -29.8%
Cc1oc(-c2ccc(Cl)cc2)nc1Cn1c(=O)cc(-c2ccccc2)c2c(C)nn(C)c21 -16.6%
Cc1ccc(-n2ncc3c(NCCC4=CCCCC4)ncnc32)cc1C -22.9%
COc1cccc(-c2nc(C(N)=O)c3c(n2)n(-c2ccc4c(c2)OCO4)c(=O)n3C)c1OC -12.6%
CSc1nc2c([nH]c3ccccc32)c(=O)n1-c1ccc(F)cc1 -13.1%
O=C(Cn1cc(S(=O)(=O)Cc2ccc(F)cc2)c2ccccc21)NCc1ccccc1 -20.5%
COc1ccccc1CCNC(=O)c1cccn1-c1nnc(N2CCCCC2)s1 -12.1%
CCOc1ccc(-c2cc(C(F)(F)F)c(C#N)c(SCC(=O)Nc3ccccc3)n2)cc1 -9.47%
CCCNC(=O)CN1C(=O)c2cccnc2Sc2ccccc21 -3.12%
C[C@@H]1CN(c2c(F)c(N)c3c(=O)c(C(=O)O)cn(C4CC4)c3c2F)C[C@H](C)N1
Cc1cccc(NC(=O)CSc2nc(C)c(Cc3ccccc3)c(=O)[nH]2)c1 -10.7%
COc1ccccc1N1CCN(C(=O)c2c3c(nc4ccccc24)C(=O)N(C2CCCCC2)C3)CC1 -14.7%
Cc1ccc(C)c(N2CCN(C(=O)c3c4c(nc5ccccc35)C(=O)N(C3CCCCC3)C4)CC2)c1 -29.8%
O=C(N/N=C/c1ccccc1O)c1ccncc1 -24.5%
CCC(C)NC(=O)c1sc2nc(C)c(C(=O)Nc3ccc(Cl)cc3)c(-c3ccc(Br)cc3)c2c1N (stereo not given) -22.8%
CCCOc1cccc(C(=O)Nc2ccc(-c3nc4ccccc4o3)cc2)c1 9.19%
COc1ccc2cc(CNc3ccc(OC)c(OC)c3)c(=O)n(CC(=O)Nc3ccc(C)cc3)c2c1 -29.1%
COc1cc(OC)cc(-n2c(=O)c3ccccc3n(CC(=O)NCCc3ccc(OC)c(OC)c3)c2=O)c1 -7.73%
O=c1cc(-c2ccc(F)cc2)nc(SCc2nc(-c3cccc(C(F)(F)F)c3)no2)[nH]1 7.98%
COc1ccc(NC(=O)CN2C(=O)C3(SCC(=O)N3c3ccccc3)c3ccccc32)cc1Cl (stereo not given) -35.6%
Cc1ccc(C(C)C)cc2c(C)ccc1-2 2.14%
O=C(Cn1ncn2nc(-c3cccs3)cc2c1=O)NCc1ccccc1Cl -12.7%
CCc1ccc(N2C(=O)CSC23C(=O)N(Cc2cccc(OC)c2)c2ccccc23)cc1 (stereo not given) -35.2%
CCn1c(=NC(=O)c2ccc(S(=O)(=O)N3CCCC3)cc2)sc2cc(Br)ccc21 -5.13%
CCOC(=O)c1c(C)c(-c2ccccc2)n(CC(=O)NC2CCCCCC2)c1C -8.52%
COc1cccc(NC(=O)Cn2cc(C(=O)c3ccc(F)cc3)c(=O)c3cc(OC)ccc32)c1 -16.8%
Cc1cccc(Cn2cnc3c(oc4ccccc43)c2=O)c1 1.8%
CCc1oc2ccccc2c1C(=O)c1cc(I)c(O)c(I)c1 -11.8%
COc1ccc(-c2c(C)nn3c(N4CCN(c5ccccc5F)CC4)cc(C)nc23)cc1OC -8.52%
N#Cc1ccc(NC2=NS(=O)(=O)c3ccccc32)cc1 -17.3%
CCC(=O)N1CCc2cc(CNS(=O)(=O)c3ccc(Br)s3)ccc21 -16.4%
Cc1cc(C)cc(NC(=O)N2CCC(CN3CCc4ccccc4C3)CC2)c1 -26.1%
CCN1CCN(C(c2ccccc2F)c2c(O)cc(C)n(CCOC)c2=O)CC1 (stereo not given) -9.39%
CCCN(CCC)CCNC(=O)c1sc2nc3n(c(=O)c2c1C)CCCCC3 -3.03%
COC(=O)c1c(NC(=O)c2nc(SCc3ccccc3C)ncc2Cl)sc2c1CCCC2 2.03%
Cc1ccc(C)c(N2C(=O)N(C)c3ccccc3S2(=O)=O)c1 -27.4%
COc1ccc(-n2c(C)nc3cc(C(=O)NC4CCCCCC4)ccc32)cc1 -25.7%
